The other results are listed elsewhere or left out. These are noisy estimates, calculated here from bound and input reads.
The sequences below were run against T1, Pho4 (S. cerevisiae) (UniProt P07270) (assay: relative binding free energy (BET-seq); higher = weaker binding). Conditions: reference: library average.
T1 sequence: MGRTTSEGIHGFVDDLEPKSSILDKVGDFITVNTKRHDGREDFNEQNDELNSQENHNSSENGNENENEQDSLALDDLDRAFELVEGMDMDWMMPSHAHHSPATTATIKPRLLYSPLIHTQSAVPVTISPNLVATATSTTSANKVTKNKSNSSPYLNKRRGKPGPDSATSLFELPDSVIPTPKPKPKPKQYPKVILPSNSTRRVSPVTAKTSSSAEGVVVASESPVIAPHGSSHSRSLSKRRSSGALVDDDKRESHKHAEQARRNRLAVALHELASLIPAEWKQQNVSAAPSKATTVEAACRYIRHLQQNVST

Sequence	relative binding free energy
GGTGTCACGTGCGGTT	0.628 kJ/mol
TTCGTCACGTGCAGGG	0.0837 kJ/mol
TAGGTCACGTGCATGT	0.293 kJ/mol
TTTGGCACGTGCGTAG	-0.628 kJ/mol
AGTAGCACGTGCGGCG	-0.46 kJ/mol
CAGGTCACGTGACGGG	0.335 kJ/mol
TGGAACACGTGTGTAT	0.126 kJ/mol
GGGTACACGTGGGGGC	0.126 kJ/mol
AAGTGCACGTGTGGGG	0.335 kJ/mol
TTCGGCACGTGAAAGG	0.126 kJ/mol
TTAGACACGTGTATTT	0.628 kJ/mol
TTGTGCACGTGAAGGG	1 kJ/mol
GTTGTCACGTGGTGGG	0.167 kJ/mol
TTGATCACGTGGCTGG	0.586 kJ/mol
TAAATCACGTGTGAAG	0.293 kJ/mol
AAGGCCACGTGTGAGT	-0.126 kJ/mol
GAACGCACGTGGGTGG	-1.26 kJ/mol
TTTGGCACGTGTCACG	-0.126 kJ/mol
GGTAGCACGTGTATAA	-0.0418 kJ/mol
TACTTCACGTGTTAAA	1.46 kJ/mol
ATTCTCACGTGTTTAT	1.21 kJ/mol
TAGCTCACGTGTGGCG	1 kJ/mol
TTCTACACGTGAGGGG	0.837 kJ/mol
TTATACACGTGAGGCT	1.09 kJ/mol
GCAGGCACGTGGGCGG	-1.88 kJ/mol

Sequence	relative binding free energy
TAAAGCACGTGTTGAT	-0.418 kJ/mol
ATTGGCACGTGAGCGT	0.377 kJ/mol
TGCGTCACGTGTGTCG	0.293 kJ/mol
ATGAGCACGTGTAGTT	-0.209 kJ/mol
AGTCGCACGTGAGGGC	0.669 kJ/mol
TGGCGCACGTGTCGGG	-0.209 kJ/mol
TGTGTCACGTGGGAGA	0.335 kJ/mol
TGAGGCACGTGAGTAT	0.0418 kJ/mol
TAGTTCACGTGATACG	1.17 kJ/mol
TGCTTCACGTGTGTCA	1.59 kJ/mol
TATTACACGTGGCAGG	0.293 kJ/mol
TGCTTCACGTGGTTTC	0.586 kJ/mol
TTTGTCACGTGTGGCC	0.418 kJ/mol
TTCTTCACGTGTCGGC	1.92 kJ/mol
CGTTGCACGTGTTTGT	0.0418 kJ/mol
GGTCACACGTGTTATG	0.209 kJ/mol
GGTCGCACGTGTCTGT	-0.544 kJ/mol
TTGTTCACGTGAGCCG	1.51 kJ/mol
AGGAGCACGTGGAGGC	-0.753 kJ/mol
TTGTGCACGTGCCGGA	-0.753 kJ/mol
AATGTCACGTGTCGCT	0.586 kJ/mol
CATTGCACGTGTGATT	0.377 kJ/mol
ATTTTCACGTGTAGTT	0.753 kJ/mol
TCTGGCACGTGGAGGG	-0.586 kJ/mol
TTGTCCACGTGTTGGA	0 kJ/mol

Sequence	relative binding free energy
TTAGACACGTGTTCTT	-0.251 kJ/mol
TGTAGCACGTGAGATG	0.167 kJ/mol
GTAGGCACGTGTTGTT	0.0418 kJ/mol
ATGGACACGTGGAATT	0.753 kJ/mol
TATGGCACGTGTCGAG	0.0418 kJ/mol
TATGTCACGTGTTCAA	0.126 kJ/mol
GTGGCCACGTGTTCGG	0.126 kJ/mol
GGTGCCACGTGGGATA	-0.628 kJ/mol
GTTGACACGTGATGAG	0.795 kJ/mol
TGGTTCACGTGAGGAT	1.51 kJ/mol
TTAGACACGTGTTGTG	-0.167 kJ/mol
CGGGACACGTGGTTGA	0.126 kJ/mol
TGATCCACGTGGGTAG	-0.209 kJ/mol
AGTGTCACGTGGGCCG	-0.544 kJ/mol
TGGCTCACGTGGGAGT	0.711 kJ/mol
CAGGTCACGTGGCGGT	-0.377 kJ/mol
AGTTTCACGTGGCGAA	0.586 kJ/mol
GCGTTCACGTGCGTGT	0.753 kJ/mol
ATAGGCACGTGAGTCT	-0.0837 kJ/mol
ATGTACACGTGAAGTG	1.09 kJ/mol
GATTCCACGTGATGTT	1.8 kJ/mol
AGTAACACGTGGTGTC	-0.167 kJ/mol
GTCTTCACGTGGGTTA	0.92 kJ/mol
TTATGCACGTGGTAGC	-1.05 kJ/mol
TTGATCACGTGGCGAG	0.335 kJ/mol

Sequence	relative binding free energy
GTGTGCACGTGCGCTG	-0.753 kJ/mol
CATGTCACGTGTGTGA	0.335 kJ/mol
TGTCTCACGTGAATGA	1.76 kJ/mol
AATAGCACGTGGTCGT	-0.711 kJ/mol
AGGGTCACGTGATACT	0.879 kJ/mol
GACTGCACGTGGTGGA	0.126 kJ/mol
TTCGGCACGTGCGTGG	-0.879 kJ/mol
ATATCCACGTGGTGGG	-1.13 kJ/mol
GTTGACACGTGGGGTT	-0.126 kJ/mol
GTCTACACGTGGTGTA	0.0837 kJ/mol
CGACTCACGTGTGGGG	0.669 kJ/mol
GAATGCACGTGTTGAG	0.293 kJ/mol
TGATGCACGTGTTATA	0.126 kJ/mol
GCTGCCACGTGGGGGT	-1.17 kJ/mol
CTGATCACGTGTTGAG	0.669 kJ/mol
TGGTACACGTGTGAAT	0.502 kJ/mol
CGAGCCACGTGTGGGG	-0.335 kJ/mol
TTTTTCACGTGGACGG	1.51 kJ/mol
GAGATCACGTGCGTGT	0.46 kJ/mol
GGTTGCACGTGCAATG	0.167 kJ/mol
GTGAGCACGTGAGGTT	0.628 kJ/mol
AAAGTCACGTGTGGAG	0.377 kJ/mol
GGTTTCACGTGCTTTA	1.13 kJ/mol
TGGGTCACGTGGTCTA	-0.167 kJ/mol
TATTTCACGTGGGTAT	0.167 kJ/mol

Sequence	relative binding free energy
CGGTGCACGTGGTGAG	-0.251 kJ/mol
GGTCGCACGTGTTAGA	0.418 kJ/mol
CGAGTCACGTGGTGTT	0.0418 kJ/mol
GGTCACACGTGTAAGG	0.418 kJ/mol
TTAGACACGTGCTGTT	-0.962 kJ/mol
TATTACACGTGATGGG	0.795 kJ/mol
TTTGACACGTGGTACT	-0.209 kJ/mol
AGTACCACGTGTGTTG	-0.0418 kJ/mol
TCGGTCACGTGTGGAT	0.795 kJ/mol
TAGTCCACGTGGTGAT	-0.0837 kJ/mol
CGTTGCACGTGTTAGA	0.46 kJ/mol
ATTTGCACGTGTTGTA	0.126 kJ/mol
GACTGCACGTGTTGGG	0.0837 kJ/mol
AATTACACGTGTCGGT	-0.0837 kJ/mol
AAGGCCACGTGAAGGG	0.46 kJ/mol
CTTATCACGTGTGCTT	0.711 kJ/mol
TGGTACACGTGAATAG	1.21 kJ/mol
GTAAGCACGTGTAAGT	0.167 kJ/mol
ATTTTCACGTGGAGAA	1 kJ/mol
TCGGTCACGTGGATTG	0.293 kJ/mol
TGCGGCACGTGCAGTT	-0.293 kJ/mol
GTTCACACGTGGTCGT	0.46 kJ/mol
TGGGGCACGTGTTGGG	-0.126 kJ/mol
AGGGACACGTGGGTTA	-0.167 kJ/mol
TGGGACACGTGTTGTG	0 kJ/mol

Sequence	relative binding free energy
GTGTCCACGTGAGTTG	0.711 kJ/mol
TAAGGCACGTGTGCTG	-0.46 kJ/mol
AGGGGCACGTGGTTAA	-0.669 kJ/mol
GGGGACACGTGGTATG	0.126 kJ/mol
TGCAGCACGTGAAGTT	0.753 kJ/mol
CATCTCACGTGTGGGG	1.17 kJ/mol
ATTGACACGTGTGTTT	0 kJ/mol
GTGGACACGTGCATGT	0.335 kJ/mol
TGGTTCACGTGATCAA	1.34 kJ/mol
GGGGGCACGTGTTGTT	-0.544 kJ/mol
CTGGTCACGTGAATTA	1.21 kJ/mol
TTTACCACGTGGATGA	0.418 kJ/mol
CAGATCACGTGAGGTG	2.05 kJ/mol
TGCATCACGTGTGGGG	0.711 kJ/mol
AAGATCACGTGTGAAT	1.05 kJ/mol
TATTTCACGTGATTTA	1.09 kJ/mol
TTCGGCACGTGGGTCG	-0.377 kJ/mol
AGTTGCACGTGAGATA	0.711 kJ/mol
TTTATCACGTGGTGTG	0.377 kJ/mol
TTAGGCACGTGTCAGC	0.46 kJ/mol
ATGAGCACGTGGGAGC	-0.209 kJ/mol

From the BET-seq Pho4 binding data (Le et al. 2018)
